In all, about 310,000 compounds went through this assay and about 14,000 (4.5%) showed an effect of 50% or more. The effect is printed as a negative number. Some of the results follow.
biological target: human ether-à-go-go-related gene (hERG) potassium channel (human, UniProt Q12809); experiment: primary screen, population patch clamp on CHO cells stably expressing hERG
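Also: peak tail current of the secondary pulse compared with the same well before compound.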

Sequence of human ether-à-go-go-related gene (hERG) potassium channel (Q12809 whole entry, looked up): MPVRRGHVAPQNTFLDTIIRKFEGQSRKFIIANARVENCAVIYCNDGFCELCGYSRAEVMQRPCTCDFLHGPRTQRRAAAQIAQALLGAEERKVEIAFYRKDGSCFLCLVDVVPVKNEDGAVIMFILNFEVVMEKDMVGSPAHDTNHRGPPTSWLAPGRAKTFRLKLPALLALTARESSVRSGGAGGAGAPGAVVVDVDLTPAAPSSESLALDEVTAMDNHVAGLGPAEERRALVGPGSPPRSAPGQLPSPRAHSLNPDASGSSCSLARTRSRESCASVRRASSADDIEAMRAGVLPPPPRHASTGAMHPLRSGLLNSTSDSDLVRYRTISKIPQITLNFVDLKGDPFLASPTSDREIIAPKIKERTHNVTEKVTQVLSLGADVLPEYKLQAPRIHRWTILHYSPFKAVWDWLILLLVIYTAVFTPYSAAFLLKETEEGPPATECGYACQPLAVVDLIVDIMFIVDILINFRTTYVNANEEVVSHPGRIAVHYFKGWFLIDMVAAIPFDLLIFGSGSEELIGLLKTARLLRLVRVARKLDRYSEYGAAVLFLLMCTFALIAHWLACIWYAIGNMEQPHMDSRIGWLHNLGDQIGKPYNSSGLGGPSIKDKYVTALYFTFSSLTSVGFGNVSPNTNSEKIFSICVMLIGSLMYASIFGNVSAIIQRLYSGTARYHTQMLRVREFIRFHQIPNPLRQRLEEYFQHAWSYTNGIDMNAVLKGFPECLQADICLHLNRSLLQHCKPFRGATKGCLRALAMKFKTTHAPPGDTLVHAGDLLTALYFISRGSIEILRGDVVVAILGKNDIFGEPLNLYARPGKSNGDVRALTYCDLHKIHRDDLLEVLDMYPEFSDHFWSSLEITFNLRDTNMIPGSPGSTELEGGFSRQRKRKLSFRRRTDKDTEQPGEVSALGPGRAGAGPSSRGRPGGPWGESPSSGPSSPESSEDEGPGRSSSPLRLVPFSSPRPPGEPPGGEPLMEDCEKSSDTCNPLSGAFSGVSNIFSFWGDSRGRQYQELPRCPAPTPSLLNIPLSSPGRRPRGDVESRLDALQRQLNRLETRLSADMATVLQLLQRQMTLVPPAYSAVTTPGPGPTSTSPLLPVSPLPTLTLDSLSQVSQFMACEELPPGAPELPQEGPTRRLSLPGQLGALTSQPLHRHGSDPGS

Row | Compound | hERG current change (%, negative = inhibition) at 10uM [%]
1 | CCOc1ccccc1NC(=O)c1cccc(NC(=O)c2ccco2)c1 | -38.6
2 | CCCCC(=O)NC1(C(F)(F)F)C(=O)Nc2c1c(=O)[nH]c(=O)n2Cc1ccco1 (centres unmarked) | -1.02
3 | N/C(=N\OC(=O)N1CCOCC1)c1ccc(Br)cc1 | 17.6
4 | CCCCc1cc(=O)oc2cc(C)cc(OCC(=O)NC(Cc3ccc(Cl)cc3)C(=O)O)c12 (centres unmarked) | 12.3
5 | CCn1nc(CC(=O)Nc2ccc(-n3cnnn3)c(C)c2)c2ccccc2c1=O | -13
6 | CC(C)OC(=O)CSc1nc(N)c(C#N)cc1C#N | 1.38
7 | COc1ccc(C2=NN(C(=O)CN3CCCC3)C(c3ccc(OC)cc3)C2)cc1 (centres unmarked) | -40.7
8 | Cc1nc2ncnn2c(C)c1CCC(=O)Nc1ccc(S(=O)(=O)N2CCCCCC2)cc1 | -1.25
9 | COCCCNC(=O)CCc1ccccc1 | 28.1
10 | Cc1ccc(N=C2NC(=O)C(CC(=O)NCc3ccccc3)S2)cc1C (centres unmarked) | -11.7
11 | CCN(Cc1ccccc1)S(=O)(=O)c1ccc(C(=O)N(CCCN(C)C)c2nc3ccc(F)cc3s2)cc1.Cl | -12.6
12 | Cc1ccc(C(C(=O)NC(C)(C)C)N(C(=O)c2csnn2)c2ccccc2F)o1 (centres unmarked) | -9.84
13 | Cc1nnc(NC(=O)C(C)Oc2ccc3c(C)cc(=O)oc3c2)s1 (centres unmarked) | 13.2
14 | Cc1cccc(NC(=S)N(CCCN(C)C)Cc2cc3cc4c(cc3[nH]c2=O)OCO4)c1 | -52.7
15 | C=CCn1c(O)c(N=NC(=O)CNC(=O)Cc2ccccc2)c2ccccc21 | -7.12
16 | COc1cccc(NC(=O)CN(C)C(=O)c2cccc(S(=O)(=O)Nc3ccccc3OC)c2)c1 | -9.41
17 | O=C(Nc1ccc(F)cc1F)N1CCCC(c2nc(-c3ccc(F)cc3)no2)C1 (centres unmarked) | -27.4
18 | Cn1c(=O)c2c(nc(-c3ccccc3)n2C)n(Cc2ccccc2)c1=O | -9.47
19 | CCN(CC(=O)NC1CCCC1)S(=O)(=O)c1ccc(F)cc1 | 5.15
20 | CCS(=O)(=O)Nc1ccc(Cc2ccc(NS(=O)(=O)CC)cc2)cc1 | -7.91
21 | COc1ccccc1NC(=O)CNS(=O)(=O)c1ccccc1 | -6.94
22 | Cc1cccc(C)c1NC(=O)COC(=O)c1cc[n+]([O-])cc1 | -0.504
23 | COc1ccc(C2CCCN2C(=S)Nc2ccccc2C)cc1OC (centres unmarked) | 3.21

Reference: publication PMC4336329 (PLoS ONE, 2015)
